Laboratory results from PMC4336329 (PLoS ONE, 2015).
Hit rate of the full screen: of about 310,000 compounds, about 14,000 (4.5%) showed an effect of 50% or more. The effect is printed as a negative number. The list shows a part of the results.

Target: human ether-à-go-go-related gene (hERG) potassium channel (human, UniProt Q12809)
Assay: primary screen, population patch clamp on CHO cells stably expressing hERG
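Note: peak tail current of the secondary pulse compared with the same well before compound.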

Chain of human ether-à-go-go-related gene (hERG) potassium channel (Q12809 whole entry, looked up): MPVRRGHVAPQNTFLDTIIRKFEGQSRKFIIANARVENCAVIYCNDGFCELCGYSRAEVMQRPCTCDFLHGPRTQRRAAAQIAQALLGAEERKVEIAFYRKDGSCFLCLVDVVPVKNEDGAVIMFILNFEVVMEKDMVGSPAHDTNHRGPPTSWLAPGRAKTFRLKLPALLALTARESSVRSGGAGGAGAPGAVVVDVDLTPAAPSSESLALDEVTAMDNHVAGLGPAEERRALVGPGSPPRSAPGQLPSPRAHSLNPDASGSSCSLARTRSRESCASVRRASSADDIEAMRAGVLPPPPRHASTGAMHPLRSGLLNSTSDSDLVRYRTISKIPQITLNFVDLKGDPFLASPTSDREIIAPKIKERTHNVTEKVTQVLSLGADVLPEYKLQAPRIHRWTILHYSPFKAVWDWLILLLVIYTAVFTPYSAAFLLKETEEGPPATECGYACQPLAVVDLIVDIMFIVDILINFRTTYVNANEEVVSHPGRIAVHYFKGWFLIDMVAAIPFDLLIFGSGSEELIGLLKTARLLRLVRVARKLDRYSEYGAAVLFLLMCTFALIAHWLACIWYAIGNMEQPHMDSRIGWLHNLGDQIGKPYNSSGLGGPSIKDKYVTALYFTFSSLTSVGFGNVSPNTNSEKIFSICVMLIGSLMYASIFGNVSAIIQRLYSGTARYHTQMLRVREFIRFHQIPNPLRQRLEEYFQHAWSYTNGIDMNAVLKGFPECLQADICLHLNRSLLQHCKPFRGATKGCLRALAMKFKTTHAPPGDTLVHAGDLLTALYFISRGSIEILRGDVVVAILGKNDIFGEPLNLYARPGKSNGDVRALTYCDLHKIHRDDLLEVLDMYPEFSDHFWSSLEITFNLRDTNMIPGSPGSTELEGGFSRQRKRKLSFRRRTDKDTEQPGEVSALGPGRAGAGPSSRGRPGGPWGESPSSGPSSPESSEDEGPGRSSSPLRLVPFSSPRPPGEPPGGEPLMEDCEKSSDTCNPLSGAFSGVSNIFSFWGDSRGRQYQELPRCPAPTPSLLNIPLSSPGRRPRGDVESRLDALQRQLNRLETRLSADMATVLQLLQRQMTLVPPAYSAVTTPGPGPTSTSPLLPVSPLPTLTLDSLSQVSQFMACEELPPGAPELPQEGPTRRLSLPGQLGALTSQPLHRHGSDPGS

| Structure (SMILES) | hERG current change (%, negative = inhibition) at 10uM [%] |
| --- | --- |
| CCOC(=O)N1CCC(NC(=O)C2CCN(C(=O)N3CC(C)Oc4ccc(C)cc43)CC2)CC1 (stereo not drawn) | -21.4 |
| Cc1ccc(NC(=O)COC(=O)CCC(=O)c2cccs2)c(C)c1 | 7.04 |
| COCCNC(=O)CSc1nnc(-c2ccc(C)cc2)c(-c2ccc(C)cc2)n1 | -19.2 |
| COc1cccc(NC(=O)C2CCOC2=O)c1 (stereo not drawn) | 26 |
| O=C(NCc1cccs1)c1cc2ccccc2o1 | -4.44 |
| CCCCn1c(N)c(N(Cc2ccccc2OC)C(=O)c2cc(CC)c(C)s2)c(=O)[nH]c1=O | 4.37 |
| Cc1cc(C(=O)COc2cc(F)ccc2[N+](=O)[O-])c(C)n1C1CC1 | -3.02 |
| O=C(O)CCCNC(=O)/C(=C\c1ccccc1F)NC(=O)c1ccccc1 | 13.4 |
| COc1ccc(OCC(O)CNC(=O)c2sccc2Cl)cc1 (stereo not drawn) | -6.39 |
| CSC1=C(C#N)C2(CCCC2)C(C#N)=C(N)N1 | -5.89 |
| COc1ccc(CCNC(=O)CN(c2ccc(OC)c(OC)c2)S(C)(=O)=O)cc1OC | 5.54 |
| COc1ccc(OC)c(C2/C(=C(\O)c3ccc4c(c3)OCCO4)C(=O)C(=O)N2CC2CCCO2)c1 (stereo not drawn) | 1.77 |
| O=C(c1ccc(Cl)c(S(=O)(=O)N2CCCCCC2)c1)N1CCCCC1 | -20.7 |
| O=C(NC(=S)Nc1ccc(S(=O)(=O)Nc2nccs2)cc1)c1ccc(Br)o1 | 20.9 |
| COc1ccc(-c2csc(NC(=O)c3nc(-c4ccccc4)oc3C)n2)cc1 | 16.3 |
| CC1CCC2(CC1)NC(=O)N(CC(=O)NC(C)c1ccc(F)c(F)c1)C2=O (stereo not drawn) | -15.9 |
| Cc1cc(=O)[nH]c(SCC(=O)Nc2ccnc3ccccc23)n1 | 12.2 |
| CCCCN=CC1=C(O)C(C(=O)OC)C(C)(C)CC1=O (stereo not drawn) | 10.1 |
| C=C1CCN([C@@H](C)C(=O)NCCCCCC)S(=O)(=O)c2ccccc21 | -35.6 |
| CCOC(=O)c1cc2cc(OC)ccc2[nH]1 | -4.86 |
| Cc1oc(-c2ccccc2Cl)nc1CSCC(=O)O | 1.18 |
| COc1ccc(C(=O)NC(=S)Nc2nc(C)c(C(=O)N(C)C)s2)cc1 | 10.3 |
| CC(=O)C1=C(c2ccccc2)OC(N)=C(C#N)C1c1ccc(O)cc1 (stereo not drawn) | 7.26 |
| CN(C)c1ncnc2sc(-c3ccccc3)cc12 | -23.6 |
| COc1ccc2c(c1[N+](=O)[O-])CCC/C2=N/OC(=O)c1cccc2ccccc12 | 21.2 |
| CN(C)CC(=O)Nc1ccc2cn[nH]c2c1 | 9.99 |
| O=C(Cc1coc(-c2ccc(F)cc2)n1)N1CCOCC1 | -0.74 |

| Structure (SMILES) | hERG current change (%, negative = inhibition) at 10uM [%] |
| --- | --- |
| C#CCOCCOCCOCCNc1nc(N2CCN(C(=O)C(Cc3ccc(O)cc3)n3cc(C(N)CC(C)C)nn3)CC2)nc(N2CCN(C(=O)C(Cc3ccc(O)cc3)n3cc(C(N)C(C)CC)nn3)CC2)n1.Cl (stereo not drawn) | 10.2 |
| CC(C)CCN1C(=O)CC(NNC(=O)c2ccc(S(=O)(=O)N3CCCC3)cc2)C1=O (stereo not drawn) | -9.87 |
| CCN(CC)c1nc(N2CCN(C)CC2)nc2ccccc12.Cl | -44.3 |
| Clc1ccc(-n2nnnc2-c2ccccc2)cc1Cl | -7.94 |
| O=Cc1c(NCc2ccccc2Cl)c2ccccc2[nH]c1=O | -1.39 |
| CCOc1cc(/C=C2/C(=N)N3OC(C)=CC3=NC2=O)ccc1OC | 15.3 |
| CNC(=S)NC1CC2CCCC(C1)N2Cc1ccco1 (stereo not drawn) | 6.44 |
| Cc1nc2ncnn2c(C)c1CCC(=O)N1CCN(c2ccccn2)CC1 | -33.3 |
| O=C(c1ccc(Cl)c(S(=O)(=O)N2CCOCC2)c1)N1CCCCC1 | 7.04 |
| CCc1ccc2c(c1)[C@]1(C(=O)N2)[C@@H]2C(=O)N(Cc3ccccc3)C(=O)[C@@H]2[C@@H]2CCCN21 | 9.89 |
| O=C1NC2(CCCCCC2)C(=O)N1Cc1ccc(Cl)cc1Cl | 4.76 |
| CC(C(=O)NCc1ccco1)n1ccc2cc(S(=O)(=O)N3CCCCC3)ccc21 (stereo not drawn) | -1.47 |
| Cc1cccc(NC(=O)C2C(c3ccccc3)C2(Cl)Cl)c1C (stereo not drawn) | 12.8 |
| Cc1cc(C)nc(/N=C(/NC(=O)c2ccccc2)Nc2ccccc2)n1 | 3.93 |
| CCOC(=O)C1(CC2CC2)CCN(Cc2cc(Cl)c(O)c(OC)c2)CC1 | -57.1 |
| COc1ccc(OC)c(C2NC(=S)NC(C)=C2C(=O)Nc2ccccn2)c1 (stereo not drawn) | 0.661 |
| O=c1cc(CN2CCN(C/C=C/c3ccccc3)CC2)c2cc(O)c(-c3ccccc3)cc2o1 | 11.6 |
| CCOc1ccc(CCNC(=O)C(C)N2C(=O)CC(C)(C)Sc3ccccc32)cc1 (stereo not drawn) | -6.26 |
| C(C#CCCCCCCCCC[n+]1ccccc1)#CCCCCCCCCC[n+]1ccccc1.Cc1ccc(S(=O)(=O)O)cc1 | -24.1 |
| Cc1[nH]c2c(ccc3ccccc32)c1C1C(CCN)C1(C)C (stereo not drawn) | 0.108 |
| COc1ccc(N=C2SC(CC(=O)Nc3ccccc3)C(=O)N2CCc2ccccn2)cc1 (stereo not drawn) | -32.6 |
| COc1ccc(OC)c(Nc2ncnc3sc(-c4ccccc4)cc23)c1 | 13.8 |
| Cc1nn(C)c(C)c1S(=O)(=O)N(CC(=O)N1CCc2ccccc21)c1ccc(C(C)C)cc1 | -0.0857 |
| CCn1c(Cc2ccc(OC)cc2)nnc1SCC(=O)Nc1cccc(C(=O)OC)c1 | -33.7 |
| Cc1cc(C(=O)N2CCCC(CO)(Cc3ccc(F)cc3)C2)c(C)o1 (stereo not drawn) | -6.38 |
| CC1CN(C(=O)C(C)Sc2nc3ccccc3s2)CC(C)O1 (stereo not drawn) | 1.01 |
| CC(C)Cc1nc2oc3c(NCC4CCCO4)ncnc3c2c2c1CCC2 (stereo not drawn) | -35.8 |
